# Test results as given in PubChem BioAssay (Tox21).
# Where “and” joins values, the source holds several entries; their conditions need not be identical. Identical values can stand only once. The inconclusive results got no clear call from the source; some entries with a clear call stand among them for comparison. For some of these results: Potencies of inconclusive entries are doubtful fits and often do not repeat. Calls of active or inactive are those of the source. Unless noted, calls follow the shape of the dose curve; as a rule, active = well fitted curve in the direction sought with a large enough effect in the repeat runs; inconclusive = weak or mixed curves; inactive = no such curve, though single readings can be large; an effect the other way counts as inactive or inconclusive.
# Assays:
# [1] = qHTS assay for small molecule agonists of the p53 signaling pathway (AID 651631; calls by dose curve; also: nearly all actives have a fitted effect of over 15% in size; also: potency is read from the fitted curve at half-maximal effect; as to activation: % is scaled to controls: 0 for no effect and ±100 for the full control effect); details: HCT-116 p53RE-bla reporter, beta-lactamase FRET ratio, 16 h; activation: at 73.3 µM (top of the series) unless noted
# How it was run: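 Fluorescence intensity from cleaved LiveBLAzer B/G substrate (2 h, room temperature) served as the signal. Beforehand, HCT-116 reporter cells bearing p53 response elements were treated 16 h at 37 °C with DMSO-dissolved compounds.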
# [2] = qHTS assay for small molecules that induce genotoxicity in human embryonic kidney cells expressing luciferase-tagged ATAD5 (AID 651632); also: potency is read from the fitted curve at half-maximal effect; nearly all actives have a fitted effect of over 15% in size
# How it was run: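 Luminescence read-out: after 16 hr compound exposure at 37C, ATAD5-luciferase HEK293T cells received Amplite, 30 min RT, then CCD imaging. A rise in signal marks genotoxic stress.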
# [3] = qHTS assay for small molecules that induce genotoxicity in human embryonic kidney cells expressing luciferase-tagged ATAD5 - cell viability (AID 651634; calls by dose curve; also: potency is read from the fitted curve at half-maximal effect; nearly all actives have a fitted effect of over 25% in size)
# How it was run: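 HEK293T ATAD5-luc cells, 2,000/well; compound 15.5 hr, 37C/5% CO2; CellTiter-Fluor 30 min, 37C; fluorescence read.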
# [4] = qHTS assay for small molecule disruptors of the mitochondrial membrane potential - cell viability (AID 720634; calls by dose curve; also: nearly all actives have a fitted effect of over 20% in size; also: potency is read from the fitted curve at half-maximal effect;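 as to activity change, negative = cytotoxicity: human HepG2 liver cancer cells; % is scaled to controls: 0 for no effect and ±100 for the full control effect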)
# How it was run: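 Luminescence from CellTiter-Glo (ATP content) gave viability in HepG2 cells, read in the same wells as the MMP dye assay after 1 hr compound exposure at 37 C.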
# [5] = qHTS assay for small molecule disruptors of the mitochondrial membrane potential (AID 720635); details: HepG2 mitochondrial membrane potential, Mito-MPS dye ratio; ratio activity, negative = MMP loss: at 83.2 µM (top of the series) unless noted; also: potency is read from the fitted curve at half-maximal effect; as to ratio activity, negative = MMP loss: % is scaled to controls: 0 for no effect and ±100 for the full control effect
# How it was run: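 HepG2 cells (2,000/well) attached overnight at 37C, then took compound for 1 hr at 37C, 5% CO2. Mito-MPS dye was added for 30 min; fluorescence was read at 490/535 nm (monomers) and 540/590 nm (aggregates).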
# [6] = qHTS assay for identifying genotoxic compounds that show differential cytotoxicity against isogenic chicken DT40 cell lines with known DNA damage response pathways - Rev3 mutant cell line (AID 743014); details: chicken DT40 Rev3-/- viability, CellTiter-Glo, 40 h; activity, negative = cytotoxicity: at 68.4 µM (top of the series) unless noted; also: nearly all actives have a fitted effect of over 55% in size; also: potency is read from the fitted curve at half-maximal effect
# [7] = qHTS assay for identifying genotoxic compounds that show differential cytotoxicity against isogenic chicken DT40 cell lines with known DNA damage response pathways - Rad54/Ku70 mutant cell line (AID 743015); details: DT40 Rad54/Ku70 mutant viability, CellTiter-Glo, 40 h; activity change, negative = cytotoxicity: at 66.8 µM (top of the series) unless noted; also: potency is read from the fitted curve at half-maximal effect; nearly all actives have a fitted effect of over 60% in size
# [8] = biological target: Glucocorticoid receptor (Homo sapiens) (UniProt P04150); assay: qHTS assay to identify small molecule antagonists of the glucocorticoid receptor (GR) signaling pathway (AID 720692; active = well fitted inhibition curve with a large enough effect in the signal ratio in the repeat runs, not every such curve was filed as active; inconclusive = weak or mixed curves, or effect the other way; inactive = no such curve, though single readings can be large or run the other way; the % refers to the signal ratio; also: potency is read from the fitted curve at half-maximal effect); details: GR-bla HeLa, beta-lactamase FRET ratio, dexamethasone-stimulated, 18 h; activity change, negative = inhibition: at 58.5 µM (top of the series) unless noted
# Sequence of UniProt P04150 (P04150 whole entry, looked up): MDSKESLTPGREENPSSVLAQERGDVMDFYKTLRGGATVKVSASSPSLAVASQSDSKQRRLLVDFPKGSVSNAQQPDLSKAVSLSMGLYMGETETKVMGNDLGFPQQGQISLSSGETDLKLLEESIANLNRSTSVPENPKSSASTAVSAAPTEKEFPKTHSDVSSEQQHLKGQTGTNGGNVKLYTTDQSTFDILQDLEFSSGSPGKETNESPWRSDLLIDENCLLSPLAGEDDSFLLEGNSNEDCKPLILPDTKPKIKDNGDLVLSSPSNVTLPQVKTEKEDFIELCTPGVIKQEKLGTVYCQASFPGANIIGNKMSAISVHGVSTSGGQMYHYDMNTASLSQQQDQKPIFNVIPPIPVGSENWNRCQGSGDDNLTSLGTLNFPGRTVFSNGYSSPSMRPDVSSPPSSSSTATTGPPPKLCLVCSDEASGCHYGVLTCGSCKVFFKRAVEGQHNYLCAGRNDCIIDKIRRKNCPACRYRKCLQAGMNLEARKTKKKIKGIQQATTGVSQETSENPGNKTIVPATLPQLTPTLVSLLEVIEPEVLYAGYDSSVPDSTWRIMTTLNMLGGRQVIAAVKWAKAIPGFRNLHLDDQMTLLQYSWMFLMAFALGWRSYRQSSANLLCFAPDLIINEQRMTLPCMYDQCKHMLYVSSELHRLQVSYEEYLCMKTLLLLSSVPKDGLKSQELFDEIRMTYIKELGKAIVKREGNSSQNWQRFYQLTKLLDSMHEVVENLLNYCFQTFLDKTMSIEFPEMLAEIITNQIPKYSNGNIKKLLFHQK
# How it was run: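 Read-out: beta-lactamase FRET substrate fluorescence, 2 h at room temperature, in HeLa cells stably carrying a GRE-driven bla reporter. Compounds were co-incubated with 5 nM dexamethasone agonist (final) for 18 h at 37 C.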
# [9] = qHTS assay for small molecule agonists of the p53 signaling pathway - cell viability (AID 651633; calls by dose curve; also: nearly all actives have a fitted effect of over 30% in size; also: potency is read from the fitted curve at half-maximal effect)
# How it was run: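 p53RE-bla cells, seeded at 4,000 per well and rested 5 h at 37 C/5% CO2, received compounds in DMSO for 16 h at 37 C. CellTiter-Glo was then added, and luminescence was read after 30 min at room temperature to gauge cytotoxicity.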
# [10] = biological target: Glucocorticoid receptor (Homo sapiens) (UniProt P04150); assay: qHTS assay to identify small molecule agonists of the glucocorticoid receptor (GR) signaling pathway (AID 720691; active = well fitted activation curve with a large enough effect in the signal ratio in the repeat runs, not every such curve was filed as active; inconclusive = weak or mixed curves, or effect the other way; inactive = no such curve, though single readings can be large or run the other way; the % refers to the signal ratio; also: % is scaled to controls: 0 for no effect and ±100 for the full control effect); details: GR-bla HeLa, beta-lactamase reporter ratio, 18 h
# How it was run: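 HeLa GR-bla reporter line; cells pre-incubated 4 h, compound in DMSO 18 h at 37 C; LiveBLAzer B/G FRET substrate 2 h RT; fluorescence intensity read-out.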
# [11] = qHTS assay for identifying genotoxic compounds that show differential cytotoxicity against isogenic chicken DT40 cell lines with known DNA damage response pathways - wild type cell line (AID 743012); details: DT40 wild type chicken cells viability, CellTiter-Glo, 40 h; activity change, negative = cytotoxicity: at 68.4 µM (top of the series) unless noted; also: nearly all actives have a fitted effect of over 60% in size; also: potency is read from the fitted curve at half-maximal effect
# How it was run: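 CellTiter-Glo luminescence readout of viability in wild type DT40 cells after 40 h compound exposure at 37 C/5% CO2; 300 cells/well; reagent incubated 30 min at room temperature before reading.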
# [12] = activation: at 62.4 µM (top of the series) unless noted
# Tags tell the direction and shape of the fitted curve or compound fluorescence and quenching.
smiles,measurement,setting,value
Nc1ccc(Cl)cc1,activation,[1],inconclusive: 0.728%
same,Potency,[2],"inconclusive: 3.06 µM [activator, full curve, poor fit]"
same,Potency,[3],"inconclusive: 1.97 µM [phenotype inactive, partial curve, poor fit]"
same,Potency,[4],inactive
same,Potency,[5],"inactive and inconclusive: 312 nM [activator, partial curve]"
same,Potency,[6],"inactive and inconclusive: 31.2 µM [cytotoxic, partial curve, poor fit]"
same,Potency,[7],"inconclusive: 69.8 µM [cytotoxic, single point]"
CCCCC(CC)CO[N+](=O)[O-] (stereo not drawn),Potency,[1],inactive
CC(O)(CS(=O)(=O)c1ccc(F)cc1)C(=O)Nc1ccc(C#N)c(C(F)(F)F)c1 (stereo not drawn),Potency,[1],"inconclusive: 7.5 µM [rising, full curve, poor fit]"
same,activation,[1],inconclusive: 8.4%
same,Potency,[6],active: 10.6 µM and active: 28.3 µM
same,Potency,[7],active: 23.7 µM and active: 28.3 µM
CCCCN(CCCCO)N=O,Potency,[1],inactive
CCOCN(C(=O)CCl)c1c(C)cccc1CC,Potency,[1],inconclusive: 72.7 µM [activator]
same,activation,[1],inconclusive: 7.53%
same,Potency,[5],"inconclusive: 5.15 µM [activator, full curve, poor fit] and inconclusive: 13.7 µM [activator, full curve]"
same,Potency,[8],"inconclusive: 1.16 µM [inhibitor, full curve]"
same,"activity change, negative = inhibition",[8],inconclusive: -37.1%
N[C@@H](Cc1ccc(N(CCCl)CCCl)cc1)C(=O)O,Potency,[1],active: 13.3 µM and active: 26.2 µM
same,Potency,[2],"inconclusive: 29.8 µM [activator, partial curve]"
same,Potency,[9],"inconclusive: 29.8 µM [cytotoxic, single point]"
same,Potency,[5],"inconclusive: 9.87 µM [activator, full curve] and inconclusive: 7.38 µM [activator, partial curve]"
same,Potency,[6],active: 75 nM and active: 117 nM
CCOP(=O)(OCC)SCCSCC,Potency,[1],inactive
CCC(C(N)=O)N1CCCC1=O (stereo not drawn),Potency,[1],inactive
CO[C@@H]1[C@H](OC(=O)NC(=O)CCl)CC[C@]2(CO2)[C@H]1[C@@]1(C)O[C@@H]1CC=C(C)C,Potency,[1],active: 18.8 µM
same,Potency,[2],"inconclusive: 18.8 µM [activator, partial curve, poor fit]"
same,Potency,[3],"inconclusive: 18.8 µM [falling, partial curve, poor fit]"
same,Potency,[5],inactive
same,"activity change, negative = inhibition",[8],inconclusive: -23.1% [at 27 µM]
same,"activity, negative = cytotoxicity",[6],inconclusive: -98.7% [at 31.4 µM]
Cc1cccc(N=Nc2ccc(N(C)C)cc2)c1,Potency,[1],"inconclusive: 69.8 µM [cytotoxic, partial curve] and inconclusive: 30.6 µM [cytotoxic, partial curve, poor fit]"
same,Potency,[2],active: 986 nM and active: 1.93 µM
same,Potency,[4],active: 19.7 µM and active: 21.7 µM
same,Potency,[5],active: 24.8 µM and active: 27.3 µM
same,activation,[10]; [12],inconclusive: -4.63% [phenotype inactive] [at 79.2 µM]
same,activation,[10]; at 62.4 µM (top of the series),inactive: -2.62%
same,Potency,[8],"inconclusive: 28 µM [inhibitor, partial curve, poor fit]"
same,"activity change, negative = inhibition",[8],inconclusive: -13.5%
Oc1cc(Cl)c(Cl)c(Cl)c1Cl,Potency,[1],"inconclusive: 5.32 µM [falling, full curve]"
same,Potency,[9],"inconclusive: 21.2 µM [cytotoxic, partial curve, poor fit]"
same,activation,[10]; [12],inconclusive: 4.41% [phenotype inactive]
same,Potency,[8],"inconclusive: 19 µM [falling, partial curve, poor fit]"
same,Potency,[11],"inconclusive: 67 µM [cytotoxic, single point]"
same,Potency,[6],"inconclusive: 75.2 µM [cytotoxic, single point]"
same,Potency,[7],"inconclusive: 67 µM [cytotoxic, single point]"
Nc1ccccc1C(=O)OC/C=C/c1ccccc1,Potency,[1],"inconclusive: 68.7 µM [falling, partial curve]"
same,Potency,[9],"inconclusive: 54.6 µM [cytotoxic, partial curve]"
same,Potency,[4],"inconclusive: 54.6 µM [cytotoxic, partial curve]"
O=Cc1ccco1,Potency,[1],inactive
same,Potency,[9],inactive
same,Potency,[5],inactive
same,Potency,[6],"inconclusive: 23.7 µM [rising, partial curve, poor fit]"
N#C/C=C/C#N,Potency,[1],"inconclusive: 71.8 µM [activator, single point]"
same,Potency,[2],"inconclusive: 57 µM [activator, partial curve]"
same,Potency,[5],"inconclusive: 57 µM [fluorescent, partial curve, poor fit]"
same,Potency,[8],"inconclusive: 25.7 µM [activator, partial curve]"
same,Potency,[11],inactive
